Out of some 310,000 compounds screened, about 14,000 (4.5%) showed an effect of 50% or more. Effects have a minus sign here. The list shows a part of the results.
What follows are compounds tested against human ether-à-go-go-related gene (hERG) potassium channel (human, UniProt Q12809) (assay: primary screen, population patch clamp on CHO cells stably expressing hERG).
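Also: peak tail current of the secondary pulse compared with the same well before compound.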

Chain of human ether-à-go-go-related gene (hERG) potassium channel (Q12809 whole entry, looked up): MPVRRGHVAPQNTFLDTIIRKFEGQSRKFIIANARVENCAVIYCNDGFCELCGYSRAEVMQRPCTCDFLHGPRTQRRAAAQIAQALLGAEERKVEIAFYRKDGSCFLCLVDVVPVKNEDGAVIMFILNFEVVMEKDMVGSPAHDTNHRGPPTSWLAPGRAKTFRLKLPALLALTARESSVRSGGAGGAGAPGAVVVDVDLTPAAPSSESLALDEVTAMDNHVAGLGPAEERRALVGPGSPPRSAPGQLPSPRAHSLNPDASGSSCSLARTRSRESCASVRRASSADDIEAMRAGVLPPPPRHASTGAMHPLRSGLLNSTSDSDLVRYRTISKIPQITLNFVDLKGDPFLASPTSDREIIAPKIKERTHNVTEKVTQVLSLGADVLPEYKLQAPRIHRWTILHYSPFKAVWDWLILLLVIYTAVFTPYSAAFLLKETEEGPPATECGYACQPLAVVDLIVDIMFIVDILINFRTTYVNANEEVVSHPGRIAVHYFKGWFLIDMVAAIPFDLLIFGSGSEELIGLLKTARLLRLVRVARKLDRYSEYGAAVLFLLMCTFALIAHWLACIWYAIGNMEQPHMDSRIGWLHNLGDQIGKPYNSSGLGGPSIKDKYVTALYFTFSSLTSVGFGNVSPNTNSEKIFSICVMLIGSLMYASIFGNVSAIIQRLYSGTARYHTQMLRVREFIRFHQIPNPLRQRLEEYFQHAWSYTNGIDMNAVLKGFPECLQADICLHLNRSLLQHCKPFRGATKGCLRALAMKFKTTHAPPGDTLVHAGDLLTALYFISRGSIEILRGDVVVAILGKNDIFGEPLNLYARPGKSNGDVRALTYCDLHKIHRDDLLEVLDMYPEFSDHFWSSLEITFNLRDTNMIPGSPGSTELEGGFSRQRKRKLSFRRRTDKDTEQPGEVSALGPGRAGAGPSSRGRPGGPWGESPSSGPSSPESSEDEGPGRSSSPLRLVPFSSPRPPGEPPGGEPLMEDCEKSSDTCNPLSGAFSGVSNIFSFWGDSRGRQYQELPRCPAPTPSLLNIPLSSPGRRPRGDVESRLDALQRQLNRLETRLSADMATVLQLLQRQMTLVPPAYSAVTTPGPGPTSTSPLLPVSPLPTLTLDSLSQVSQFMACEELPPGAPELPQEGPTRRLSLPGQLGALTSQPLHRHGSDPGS

Row | Structure (SMILES) | hERG current change (%, negative = inhibition) at 10uM
1 | O=C(Cc1ccc(F)cc1)c1ccc(O)cc1O | -15.5%
2 | CCn1cc(C(=O)N2CCN(c3ccccc3F)CC2)c(=O)c2ccc(C)nc21 | -5.94%
3 | O=C(CSc1oc(-c2ccco2)nc1S(=O)(=O)c1ccc(F)cc1)NCC1CCCO1 (centres unmarked) | -20%
4 | CCc1nnc(NC(=O)CCC(=O)N2CCN(c3cc(Cl)ccc3C)CC2)s1 | -13.4%
5 | CC(=O)Oc1ccc(NC(=O)CSc2ccccc2)cc1 | -3.08%
6 | CCN(CC)CCN(C(=O)C1=COCCO1)c1nc2cc3c(cc2s1)OCO3.Cl | -72%
7 | COc1ccc(/C(C)=N/Nc2ccccc2Cl)c(O)c1 | 16.5%
8 | O=C(NCC1CCCCC1)c1ccccc1[N+](=O)[O-] | 17.6%
9 | COc1c(-c2ccccc2)oc2c(ccc3occc32)c1=O | 9.21%
10 | Cc1ccc(NC(=O)NC(=O)CN2CCN(c3ccc(O)cc3)CC2)c(C)c1 | 10.2%
11 | O=C(CSc1nnc(CCc2nc3ccccc3[nH]2)n1-c1ccccc1)NCc1ccco1 | 0.0218%
12 | COC(=O)c1ccc(NC2=CC(=O)CC(C)(C)C2)cc1 | 1.48%
13 | CCOC(=O)c1cc(-c2csc(-c3cccc(Cl)c3)n2)on1 | 18.8%
14 | Cc1cc(Cl)ccc1NC(=O)COC(=O)c1c(C)noc1C | 13.9%
15 | CC(OC(=O)C1=COCCO1)C(=O)Nc1ccc(Cl)cn1 (centres unmarked) | 5.14%
16 | CN(C)c1ccc(NC(=O)Nc2csc3ccccc23)cc1 | 18.4%
17 | CCC1(c2ccccc2)NC(=O)N(CC(=O)Nc2cc(Cl)ccc2N2CCOCC2)C1=O (centres unmarked) | -11.2%
18 | O=C(COC(=O)C1CCC1)NCc1ccccc1 | 6.8%
19 | O=c1[nH]c(O)c(/C=C2\C=Nc3ccccc32)[nH]1 | 20.9%
20 | O=C(N/N=C/c1ccc2c(c1)OCO2)c1cccnc1 | 32.5%
21 | Cc1cccc(NC(=O)c2ccc(CN3CCc4ccccc4C3)cc2)c1C | 4.49%
22 | O=C(CCN1CCc2ccccc2C1)Nc1ccccc1 | -24.2%
23 | Cc1nc2ccccn2c1C(=O)CSc1cccc(Cl)c1 | -27.4%
24 | CCSc1cc(C)nc2c(-c3ccccc3)c(C)nn12 | -6.25%
25 | Cc1ccc2ncccc2c1 | 8.75%
26 | COc1ccc(NC(=O)CCN2CCCCCC2)cc1 | -12.3%

Reference: paper PMC4336329 (PLoS ONE, 2015)
